In article PMC4336329 (PLoS ONE, 2015):
Among all 310,000 compounds or so, about 14,000 (4.5%) showed an effect of 50% or more. The effect is printed as a negative number. The list shows a part of the results.

Biological target: human ether-à-go-go-related gene (hERG) potassium channel (human, UniProt Q12809)
Experiment: primary screen, population patch clamp on CHO cells stably expressing hERG
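Also: peak tail current of the secondary pulse compared with the same well before compound.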

Sequence of human ether-à-go-go-related gene (hERG) potassium channel (Q12809 whole entry, looked up): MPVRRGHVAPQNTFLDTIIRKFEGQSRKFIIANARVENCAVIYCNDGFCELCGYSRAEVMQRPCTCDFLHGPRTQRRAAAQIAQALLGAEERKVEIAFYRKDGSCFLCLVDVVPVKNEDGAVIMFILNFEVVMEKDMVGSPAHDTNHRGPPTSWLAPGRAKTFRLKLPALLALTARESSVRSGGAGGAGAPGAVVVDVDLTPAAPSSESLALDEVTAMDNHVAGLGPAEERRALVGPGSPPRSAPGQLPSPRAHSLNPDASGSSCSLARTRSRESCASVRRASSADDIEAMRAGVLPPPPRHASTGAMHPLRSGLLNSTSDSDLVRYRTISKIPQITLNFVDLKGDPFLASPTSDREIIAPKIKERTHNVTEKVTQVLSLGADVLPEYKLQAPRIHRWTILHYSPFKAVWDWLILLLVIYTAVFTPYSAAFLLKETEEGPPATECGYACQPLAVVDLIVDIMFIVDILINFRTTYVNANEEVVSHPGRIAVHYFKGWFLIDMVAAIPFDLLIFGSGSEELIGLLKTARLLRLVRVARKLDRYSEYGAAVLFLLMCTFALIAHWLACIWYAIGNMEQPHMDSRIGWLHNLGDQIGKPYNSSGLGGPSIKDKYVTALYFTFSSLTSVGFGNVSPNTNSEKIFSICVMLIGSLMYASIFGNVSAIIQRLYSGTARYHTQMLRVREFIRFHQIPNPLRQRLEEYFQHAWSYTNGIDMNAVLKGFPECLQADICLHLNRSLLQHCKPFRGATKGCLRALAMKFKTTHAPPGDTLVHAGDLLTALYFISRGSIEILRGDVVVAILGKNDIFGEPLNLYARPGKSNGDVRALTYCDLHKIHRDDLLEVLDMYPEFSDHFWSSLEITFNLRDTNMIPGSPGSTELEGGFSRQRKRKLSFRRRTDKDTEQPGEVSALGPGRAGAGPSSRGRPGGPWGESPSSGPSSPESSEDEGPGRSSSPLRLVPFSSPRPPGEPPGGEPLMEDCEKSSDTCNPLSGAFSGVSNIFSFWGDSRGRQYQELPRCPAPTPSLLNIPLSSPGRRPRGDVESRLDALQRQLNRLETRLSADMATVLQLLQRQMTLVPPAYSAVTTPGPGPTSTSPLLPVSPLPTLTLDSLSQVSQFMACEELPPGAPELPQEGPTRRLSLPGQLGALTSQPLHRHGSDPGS

Compound | hERG current change (%, negative = inhibition) at 10uM
Cc1n[nH]c(=O)c2c(NC(=O)COC(=O)Cc3c(F)cccc3Cl)oc(C)c12 | -2.5%
Cc1ccc(C(=O)C(OC(=O)CN2C(=O)c3ccccc3C2=O)c2ccccc2)cc1 (centres unmarked) | -20.7%
S=C(NC1CCCC1)N1CCOCC1 | -1.58%
Cl.O=C(CN1CCCCC1)Nc1ccc(NC(=O)c2ccccc2Cl)cc1Cl | -8.82%
CC(Sc1ccc(S(=O)(=O)N2CCCC2)cn1)C(N)=O (centres unmarked) | 12%
COc1ccc(C2C(C(C)=O)=C(O)C(=O)N2c2cccnc2)cc1OC (centres unmarked) | 14%
CC(=O)c1cccc(NC(=O)c2cc3nc(C)cc(C)n3n2)c1 | 3.83%
CCCOc1ccccc1Nc1nnc(C)c(=O)[nH]1 | 2.99%
Cc1ccc(O)c(C(=O)c2cnc(/N=C(\N)N(C)C)nc2)c1 | 12.3%
C(=C\c1nc(-c2ccccc2)no1)/c1ccccc1 | 13.9%
COc1ccc(-c2nn(-c3ccccc3)cc2C(=O)NC(=S)Nc2cc(Cl)ccc2Cl)cc1 | 11.1%
CCOC(=O)Cn1c(C)[n+](C)c2cc(Cl)c(Cl)cc21.[I-] | -9.71%
CN(C(=O)COC(=O)C1CCN(S(=O)(=O)c2ccc3c(c2)OCCO3)CC1)c1ccccc1 | -8.77%
COc1ccc(OCc2ccc(/C=N\NC(=O)c3sccc3C)o2)cc1 | 6.56%
O=C1CC[C@@H](CN(Cc2ccccn2)Cc2nc(Cc3ccccc3)no2)N1 | -2.64%
Cc1cc(N2C(=O)C(O)=C(C(=O)c3cc4ccccc4o3)C2c2cccc(Cl)c2)no1 (centres unmarked) | 21.6%
O=C(Nc1ccc(Cl)cc1C(=O)NCCN1CCOCC1)c1ccc(Cl)cc1Cl | -21.2%
CC(=O)Oc1ccc(-c2cccc(C(=O)N3CCCCC3)c2)cc1 | 5.03%
N#CCCn1cc(C(=O)Nc2ccccc2Br)c(-c2cc3ccccc3o2)n1 | -7.47%
Cc1oc(-c2ccc(Cl)cc2)nc1CN1CCCC(C(=O)NC2CC2)C1 (centres unmarked) | -81.3%
CCCCn1c(N)c(N(CC)C(=O)c2ccccc2C)c(=O)[nH]c1=O | 20.7%
CCCS(=O)(=O)N1CCC(C(=O)N2CCN(C(=O)OCC)CC2)CC1 | -1.63%

Compound | hERG current change (%, negative = inhibition) at 10uM
CC#CP(=O)(OC)C(O)(CF)c1ccccc1 (centres unmarked) | 12.9%
CCOC(=O)C1CCN(/C=C2/C(=O)NC(=O)N(Cc3ccco3)C2=O)CC1 | 14.8%
CC(C)(C)NS(=O)(=O)c1cnc(Cl)c(Cl)c1 | 2.6%
O=C(NCc1ccc(S(=O)(=O)NC2CCCCC2)s1)c1ccccc1 | -12%
COc1ccc(C(NC(=O)N2CC(C)OC(C)C2)C(Cl)(Cl)Cl)cc1F (centres unmarked) | -10.4%
COc1ccccc1Nc1nc(N)nc(CN2CCN(c3ccccc3F)CC2)n1 | -35.9%
COc1ccc(C2CC(C(F)(F)F)n3nc(C(=O)Nc4c(C)n(C)n(-c5ccccc5)c4=O)c(Cl)c3N2)cc1 (centres unmarked) | -17.3%
COc1ccc(C(CC(=O)Nc2ccc(C)cn2)N2Cc3ccccc3C2=O)cc1 (centres unmarked) | -41.7%
CN=C1S/C(=C\c2ccc(SC)cc2)C(=O)N1C | 15.6%
CCC(C)(C)NC(=O)C(c1ccccc1F)N(Cc1ccco1)C(=O)c1csnn1 (centres unmarked) | -26.2%
CCOC(=O)c1c(C)c(C(=O)NC(C)COC)c(C)n1CC (centres unmarked) | -6.3%
CCOc1ccc(CN2CCNC(=O)C2CC(=O)N(C)Cc2nonc2C)cc1 (centres unmarked) | 14.7%
Cc1ccc(N2CC(=O)N(NC(=O)Nc3ccc(Cl)c(Cl)c3)CC2=O)cc1 | 12.2%
O=C(C1=C(O)C(=O)N(CCN2CCOCC2)C1c1ccc(F)cc1)c1cc2ccccc2o1 (centres unmarked) | 2.59%
CC(C)c1ccc(C(C(=O)NC2CCCCC2)N(C(=O)c2ccccn2)c2cccnc2)cc1 (centres unmarked) | 11.5%
COc1ccccc1CNC1CCCc2ccccc21.O=C(O)C(=O)O (centres unmarked) | -6.19%
Cc1ccc(NC(=O)c2cc(C(C)(C)C)nn2Cc2ccccc2)cc1 | -0.692%
COc1cc(NC(=O)C(=O)Nc2ccc3nc4n(c(=O)c3c2)CCCCC4)cc(OC)c1OC | -1.55%
Cc1ccc(CCNC(=O)CN2CCN(Cc3ccccc3F)C2=O)cc1 | -8.3%
Cc1cccc2cc(C3CC(c4cccs4)=NN3C(=O)CCC(=O)O)c(Cl)nc12 (centres unmarked) | 1.57%
COc1cc2nc(CSc3ncn[nH]3)[nH]c(=O)c2cc1OC | 15.3%
CCOc1ccc(-c2nnn(CC(=O)NCc3ccc(F)cc3)n2)cc1OCC | 2.92%
